Some of the results follow. These are noisy estimates, calculated here from bound and input reads.

This note sets out measurements from the BET-seq Pho4 binding data (Le et al. 2018).

In this assay the target is T1, Pho4 (S. cerevisiae) (UniProt P07270).
T1 sequence: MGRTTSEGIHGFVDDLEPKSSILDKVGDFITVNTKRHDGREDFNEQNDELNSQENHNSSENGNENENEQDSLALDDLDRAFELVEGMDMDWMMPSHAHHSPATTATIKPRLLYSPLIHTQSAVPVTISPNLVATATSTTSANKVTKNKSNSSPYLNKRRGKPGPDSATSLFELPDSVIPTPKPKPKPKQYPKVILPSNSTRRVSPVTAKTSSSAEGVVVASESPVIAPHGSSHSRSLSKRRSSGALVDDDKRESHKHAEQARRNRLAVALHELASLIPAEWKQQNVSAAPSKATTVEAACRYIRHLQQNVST
Put plainly: relative binding free energy (BET-seq); higher = weaker binding. The following applies: reference: library average.
Consider TATGGCACGTGTTTTT, for which the “relative binding free energy” value is -0.01 kcal/mol.

As to TGTGTCACGTGAGCGC, the “relative binding free energy” value was 0.24 kcal/mol.

As for GTAGTCACGTGTTGGT, the “relative binding free energy” value is 0.28 kcal/mol.

Take TGGATCACGTGGAGTG: the “relative binding free energy” value turned out to be 0.09 kcal/mol.

In the case of TTTTTCACGTGTTATG, the “relative binding free energy” value was found to be 0.33 kcal/mol.

In the case of GGAGACACGTGGTTAT, the “relative binding free energy” value amounted to 0.02 kcal/mol.

Consider GTATTCACGTGGCTGG, for which the “relative binding free energy” value amounted to 0.14 kcal/mol.

In the case of GGTGCCACGTGATTGT, the “relative binding free energy” value turned out to be 0.14 kcal/mol.

With GTAGACACGTGTAGGT, the “relative binding free energy” value was 0.11 kcal/mol.

Consider TTCTGCACGTGGTTAA, for which the “relative binding free energy” value is -0.17 kcal/mol.

Turning to TTTTACACGTGTTAGC, the “relative binding free energy” value turned out to be 0.2 kcal/mol.

As for TATTGCACGTGTTCAG, the “relative binding free energy” value was -0.05 kcal/mol.

TGGCGCACGTGGAGTA: the “relative binding free energy” value was -0.12 kcal/mol.

In the case of ATGGTCACGTGTGTGC, the “relative binding free energy” value was found to be 0.12 kcal/mol.

Take GGGAACACGTGGTTGG: the “relative binding free energy” value was -0.04 kcal/mol.

On to ATTATCACGTGAAATT, for which the “relative binding free energy” value turned out to be 0.38 kcal/mol.

With GGAAACACGTGGGTGA, the “relative binding free energy” value was -0.19 kcal/mol.

In the case of TGCGTCACGTGGGAAT, the “relative binding free energy” value was -0.05 kcal/mol.

In the case of TCGGGCACGTGAAAGG, the “relative binding free energy” value turned out to be 0.24 kcal/mol.

AAGAGCACGTGGGCTC: the “relative binding free energy” value was -0.01 kcal/mol.

Consider TCGATCACGTGTTGGT, for which the “relative binding free energy” value came to 0.21 kcal/mol.

On to GGGGGCACGTGGGAGA, for which the “relative binding free energy” value was -0.15 kcal/mol.

As to AAGTACACGTGTTGGG, the “relative binding free energy” value was -0.05 kcal/mol.

For GGGCTCACGTGTGAAT, the “relative binding free energy” value came out at 0.35 kcal/mol.

On to AATCTCACGTGGTTGG, for which the “relative binding free energy” value is 0.24 kcal/mol.

As for TATCGCACGTGGGGGT, the “relative binding free energy” value was -0.22 kcal/mol.

CGGTGCACGTGTATGA: the “relative binding free energy” value is -0.07 kcal/mol.

Consider AGAGACACGTGGTGCG, for which the “relative binding free energy” value worked out at 0.01 kcal/mol.

With GGTAACACGTGTGTAT, the “relative binding free energy” value was 0.09 kcal/mol.

GTGGGCACGTGAAGTC: the “relative binding free energy” value was found to be 0.33 kcal/mol.

As for GTATACACGTGGGGGC, the “relative binding free energy” value was 0.08 kcal/mol.

For TGGAGCACGTGTGAGG, the “relative binding free energy” value is -0.01 kcal/mol.

For ATTAACACGTGGTTGG, the “relative binding free energy” value was -0.24 kcal/mol.

In the case of AGGATCACGTGTGGCA, the “relative binding free energy” value came to 0.3 kcal/mol.

For GTTCCCACGTGTGTGG, the “relative binding free energy” value is -0.01 kcal/mol.

As for CCGTTCACGTGTGTTT, the “relative binding free energy” value came to 0.18 kcal/mol.

For GGTAACACGTGTTTCT, the “relative binding free energy” value stood at 0.09 kcal/mol.

Consider ATAACCACGTGGTGGT, for which the “relative binding free energy” value is -0.12 kcal/mol.

As for GGAAGCACGTGATTTG, the “relative binding free energy” value worked out at 0 kcal/mol.

Regarding ATCGTCACGTGTTTAG, the “relative binding free energy” value came to 0.12 kcal/mol.

As for ATGGTCACGTGCGGGG, the “relative binding free energy” value is -0.01 kcal/mol.

In the case of TTGGGCACGTGGAAGT, the “relative binding free energy” value was determined as 0.1 kcal/mol.

Take TTGTACACGTGTTATG: the “relative binding free energy” value came to 0.11 kcal/mol.

In the case of GTGATCACGTGATATA, the “relative binding free energy” value is 0.39 kcal/mol.

Consider CTGGGCACGTGTGACG, for which the “relative binding free energy” value is -0.01 kcal/mol.

In the case of ATGGGCACGTGATTGT, the “relative binding free energy” value was -0.04 kcal/mol.

For the sequence TGAACCACGTGGTATG, the “relative binding free energy” value was -0.04 kcal/mol.

As to GTTGGCACGTGTGATG, the “relative binding free energy” value was -0.01 kcal/mol.

As for CGGTGCACGTGGATTG, the “relative binding free energy” value is 0.05 kcal/mol.

Turning to GCGGGCACGTGCAGGG, the “relative binding free energy” value is -0.24 kcal/mol.

Take GTCTGCACGTGGTTGT: the “relative binding free energy” value was -0.07 kcal/mol.

On to GCGTACACGTGGTGGG, for which the “relative binding free energy” value is -0.04 kcal/mol.

Regarding ATGGTCACGTGTGTCG, the “relative binding free energy” value is 0.22 kcal/mol.

On to CTTGGCACGTGGTGCA, for which the “relative binding free energy” value is -0.2 kcal/mol.

Regarding TGAGGCACGTGCGTGT, the “relative binding free energy” value is -0.16 kcal/mol.

In the case of CTATTCACGTGTATGG, the “relative binding free energy” value was found to be 0.16 kcal/mol.

Take TGGGCCACGTGGTGAA: the “relative binding free energy” value is -0.17 kcal/mol.

With GGTGTCACGTGTTAGG, the “relative binding free energy” value was 0.17 kcal/mol.

Take GAAGTCACGTGTAATT: the “relative binding free energy” value is 0.29 kcal/mol.

For GGAAACACGTGTTGGG, the “relative binding free energy” value is -0.02 kcal/mol.

With GCATGCACGTGGGGCG, the “relative binding free energy” value is -0.19 kcal/mol.

GAGATCACGTGATTTT: the “relative binding free energy” value turned out to be 0.46 kcal/mol.

Take ATCGGCACGTGGAAGG: the “relative binding free energy” value was -0.02 kcal/mol.

Consider AAGGTCACGTGGTCGA, for which the “relative binding free energy” value stood at 0.1 kcal/mol.

On to ATGAACACGTGAATGT, for which the “relative binding free energy” value stood at 0.36 kcal/mol.

Turning to TTTGCCACGTGGGTGA, the “relative binding free energy” value is -0.23 kcal/mol.

With TATTACACGTGCTTTT, the “relative binding free energy” value turned out to be 0 kcal/mol.

With TAGATCACGTGAGTGT, the “relative binding free energy” value turned out to be 0.32 kcal/mol.

With GTGTACACGTGTGCTG, the “relative binding free energy” value came to 0.03 kcal/mol.

Turning to CTTCTCACGTGTTTGG, the “relative binding free energy” value was 0.15 kcal/mol.

For the sequence CAATGCACGTGTGAGG, the “relative binding free energy” value came to 0.07 kcal/mol.

Take GTAGGCACGTGGAGCG: the “relative binding free energy” value was -0.1 kcal/mol.

On to TGTGTCACGTGGGTAC, for which the “relative binding free energy” value was found to be 0.02 kcal/mol.

For TGTTACACGTGCTGAG, the “relative binding free energy” value was found to be 0.18 kcal/mol.

In the case of TTGAACACGTGATTGG, the “relative binding free energy” value came to 0.16 kcal/mol.

AGGAGCACGTGTGTGA: the “relative binding free energy” value was -0.09 kcal/mol.

Turning to AATTACACGTGTGGTC, the “relative binding free energy” value came out at 0.27 kcal/mol.

For the sequence CGGTGCACGTGGAGTA, the “relative binding free energy” value was -0.09 kcal/mol.

With TAACTCACGTGAGGGA, the “relative binding free energy” value amounted to 0.34 kcal/mol.

GTTAGCACGTGTTATC: the “relative binding free energy” value is -0.09 kcal/mol.

For the sequence CCGAGCACGTGTGTTG, the “relative binding free energy” value is 0.03 kcal/mol.

Take TGTCTCACGTGGGAAG: the “relative binding free energy” value stood at 0.14 kcal/mol.

Turning to TTTGCCACGTGTGGCT, the “relative binding free energy” value is -0.11 kcal/mol.

AAATGCACGTGATGCG: the “relative binding free energy” value amounted to 0.2 kcal/mol.

On to TATTTCACGTGGGGGC, for which the “relative binding free energy” value turned out to be 0.24 kcal/mol.

In the case of AGGGGCACGTGGCGAG, the “relative binding free energy” value was -0.1 kcal/mol.

As to GGGTGCACGTGAGACA, the “relative binding free energy” value amounted to 0.29 kcal/mol.

Turning to TTTTTCACGTGGCTAG, the “relative binding free energy” value turned out to be 0.16 kcal/mol.

Consider GGTTCCACGTGGTGGC, for which the “relative binding free energy” value stood at 0.04 kcal/mol.

Turning to GGGATCACGTGGGAAA, the “relative binding free energy” value was 0.1 kcal/mol.

As to AGTTTCACGTGGGGGA, the “relative binding free energy” value is 0.22 kcal/mol.

Consider TTCGTCACGTGAGTAA, for which the “relative binding free energy” value came to 0.4 kcal/mol.

Turning to ATCTGCACGTGATTGT, the “relative binding free energy” value worked out at 0.11 kcal/mol.

Consider TCTGTCACGTGTCTTT, for which the “relative binding free energy” value worked out at 0.04 kcal/mol.

Turning to GAAGGCACGTGTTGTT, the “relative binding free energy” value was -0.09 kcal/mol.

Turning to ATATGCACGTGGAGCG, the “relative binding free energy” value is -0.05 kcal/mol.

As to TTGGACACGTGATTGC, the “relative binding free energy” value stood at 0.19 kcal/mol.

Regarding ATGGGCACGTGTTCTT, the “relative binding free energy” value was -0.02 kcal/mol.

GTGTACACGTGTATTT: the “relative binding free energy” value was determined as 0.04 kcal/mol.

For TGTTGCACGTGGGTTC, the “relative binding free energy” value was -0.08 kcal/mol.

On to GCGTGCACGTGAGTGT, for which the “relative binding free energy” value turned out to be 0.1 kcal/mol.

With TGATTCACGTGTGTAC, the “relative binding free energy” value was found to be 0.24 kcal/mol.

With TAAGGCACGTGGATGG, the “relative binding free energy” value was -0.08 kcal/mol.

As to TTATTCACGTGGCTTT, the “relative binding free energy” value was 0.02 kcal/mol.

Turning to TTGCTCACGTGAATGG, the “relative binding free energy” value worked out at 0.33 kcal/mol.

Regarding TGGTGCACGTGTGCAG, the “relative binding free energy” value was -0.03 kcal/mol.

In the case of TATAACACGTGGATTT, the “relative binding free energy” value came out at 0.14 kcal/mol.

For TTATTCACGTGGGGGA, the “relative binding free energy” value stood at 0.21 kcal/mol.

As for AGTAACACGTGGGGGG, the “relative binding free energy” value was -0.11 kcal/mol.

With GGATGCACGTGTGATA, the “relative binding free energy” value came out at 0.03 kcal/mol.

For the sequence GTTATCACGTGGGCGG, the “relative binding free energy” value came out at 0.12 kcal/mol.

For the sequence TGTTTCACGTGGACCT, the “relative binding free energy” value was 0.2 kcal/mol.

On to GGTGCCACGTGGATGG, for which the “relative binding free energy” value was -0.04 kcal/mol.

With TTATACACGTGGGCGG, the “relative binding free energy” value is -0.1 kcal/mol.

Turning to ATCCGCACGTGTTTGT, the “relative binding free energy” value was 0.09 kcal/mol.
